Test results published in PubChem BioAssay AID651820 (National Center for Advancing Translational Sciences (NCATS), 2012).
Out of some 340,000 compounds screened, about 12,000 (3.5%) were called active. Inconclusive results, whose numbers are uncertain, are shown with a selection of clear calls. Calls come from the whole dose curve; as a rule, active = well fitted inhibition curve with a large enough effect; inconclusive = small, poorly fitted or top-dose-only effect, or another doubt; inactive = no such curve, though single readings can be large or run the other way. Potencies of inconclusive entries are left out as doubtful fits.

assay: qHTS Assay for Inhibitors of Hepatitis C Virus (HCV); conditions: Huh7.5.1 HCVcc-Cre (HCVcc is cell-culture hepatitis C virus) infection, luciferase reporter, 44 h; activity change, negative = inhibition: at 41.8 µM (top of the series) unless noted
Procedure, shortened: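 Cells seeded at 1,000/well and cultured 4 h, then compounds added followed by HCVcc-Cre virus (~0.5 moi). After 44 h further culture, luciferase substrate was added, plates held 15 min at room temperature, and luminescence read for 15 sec.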
% is set by controls: 0 for no effect and ±100 for the full control effect; potency is the fitted concentration of half-maximal effect; tags give direction and shape of the fitted curve.

Row | SMILES | activity change, negative = inhibition | Potency
1 | Cn1c(SCC(=O)N2CCOCC2)nnc1-c1ccncc1 | inactive: -0.165% | –
2 | O=C(Nc1ccc(-c2nc3cccnc3s2)cc1)c1ccc(Cl)nc1 | – | inconclusive [inhibitor, single point]
3 | COc1ccc(C(=O)Nc2sc(C)c(-c3ccccc3)c2C#N)cc1OC | – | inconclusive [inhibitor, partial curve, poor fit]
4 | Cc1ccc(NC(=O)CSc2ncnc3ccccc23)cc1S(=O)(=O)N1CCCCC1 | – | inconclusive [inhibitor, single point]
5 | CNC(=S)N/N=C/c1cccc(OCc2ccccc2F)c1 | – | inconclusive [inhibitor, single point]
6 | Cc1ccc(O)c(NC(=O)CSc2n[nH]c(C)c2[N+](=O)[O-])c1 | – | inconclusive [inhibitor, full curve, poor fit]
7 | Cc1nc2ccccn2c(=O)c1CCN1CCC(C(=O)c2ccc(F)cc2)CC1 | – | inconclusive [inhibitor, partial curve]
8 | O=C(CCS(=O)(=O)c1ccccc1F)Nc1ccc(N2CCN(Cc3ccccc3)CC2)cc1 | – | inconclusive [inhibitor, single point]
9 | COc1cc(CNC(C)(C)CO)cc(Br)c1OCc1ccc(Cl)cc1Cl | – | active: 10 µM
10 | COc1c(/C=C2/C(=O)NC(=O)N(C)C2=O)c(CCN(C)C(=O)c2ccccc2)cc2c1OCO2 | – | inconclusive [inhibitor, partial curve]
11 | Cc1cc(/C=C(\C#N)C(=O)NCC2CCCO2)c(C)n1-c1ccc(Cl)cc1 (stereo not given) | – | inconclusive [inhibitor, partial curve]
12 | COc1ccccc1C(=O)NC(=S)Nc1cccc2cc(O)ccc12 | – | inconclusive [inhibitor, single point]
13 | Cc1ccccc1CN1CCCN(Cc2ccc(Cl)cc2)S1(=O)=O | inactive: -25.5% | –
14 | CN(C)c1ccc(-c2nn3c(C4CCCCC4)nnc3s2)cc1 | – | inconclusive [inhibitor, single point]
15 | CCC(=O)Nc1nc(C)c(C(=O)Nc2cccc(Cl)c2)s1 | – | inconclusive [inhibitor, partial curve]
16 | COc1ccc(OCC(O)Cn2c(=N)n(Cc3ccccc3)c3ccccc32)cc1 (stereo not given) | – | active: 10 µM
17 | Cc1[nH]c2c(ccc3ccccc32)c1C1C(CCN)C1(C)C (stereo not given) | – | inconclusive [inhibitor, single point]
18 | Cc1ccc(NC(=O)CSc2nc(C)c(Cc3ccccc3)c(=O)[nH]2)cc1 | inactive: 6.63% | –
19 | O=C(CCNS(=O)(=O)c1ccccc1)OCc1nnc(-c2ccccc2)o1 | inactive: 24.6% | –
20 | COc1ccc(CCNC(=O)CN(c2ccccc2OC)S(=O)(=O)c2ccc(C)cc2)cc1 | – | inconclusive [inhibitor, single point]
21 | O=C(Nc1cccnc1Cl)c1ccc2c(Cl)c3c(nc2c1)CCC3 | inactive: -3.65% | –
22 | CC(C)Cc1nc(N2CCOCC2)c(C#N)c2c1COC(C)(C)C2 | – | inconclusive [inhibitor, partial curve]
23 | Cn1c(SCC(=O)NCc2ccc3c(c2)OCO3)nnc1-c1cc2ccccc2cc1O | – | inconclusive [inhibitor, partial curve, poor fit]

Row | SMILES | activity change, negative = inhibition | Potency
24 | CC(C)CCOc1ccc(C(=O)NCC(c2cccs2)N2CCOCC2)cc1 (stereo not given) | – | inconclusive [inhibitor, single point]
25 | Cc1ccc(S(=O)(=O)n2cc(-c3ccccc3)c(N)n2)cc1 | – | inconclusive [inhibitor, single point]
26 | CC(C)c1ccc(NC2CCCN(C(=O)c3cccc(N4CCNC4=O)c3)C2)cc1 (stereo not given) | – | inconclusive [inhibitor, partial curve]
27 | COc1ccc2c(c1)c(C(=O)CN1CCN(c3ccccc3)CC1)c(C)n2C | – | inconclusive [inhibitor, single point]
28 | COC(=O)c1c(C(=O)OC)c2oc3ccccc3n2c1Cl | – | inconclusive [inhibitor, single point]
29 | Cc1ccc(S(=O)(=O)Nc2ccc3c(c2)nc2n3CCN(Cc3ccccc3)C2)cc1 | – | active: 15.8 µM
30 | O=C(NC(=S)NCc1ccc(Cl)cc1)c1ccco1 | inactive: -14.8% | –
31 | COc1ccc2c(c1)S(=O)(=O)c1ccccc1N2 | inactive: -4.5% | –
32 | Cc1cccc(NC(=O)CN2C(=O)N/C(=C/c3cc(C)n(C)c3C)C2=O)c1 | inactive: 4.77% | –
33 | Cc1snc(SCc2cccc(Cl)c2)c1C#N | inactive: -2.68% | –
34 | COc1ccc(C2C(C#N)=C(N)N(c3sc4c(c3C#N)CCCC4)C3=C2C(=O)CC(C)(C)C3)cc1OC (stereo not given) | – | inconclusive [inhibitor, single point]
35 | CCN(CC)c1ccc(C(=O)N/N=C(\C)c2cccc(OC)c2)cc1 | – | inconclusive [inhibitor, single point]
36 | CCOc1ncccc1C(=O)NC(C)CCc1ccccc1 (stereo not given) | inactive: -7.46% | –
37 | COCCN(Cc1cc2cc(C)c(C)cc2nc1Cl)C(=O)Nc1ccccc1 | – | inconclusive [inhibitor, partial curve]
38 | CC(C)c1ccccc1OCCCCCNCCO | – | inconclusive [inhibitor, full curve, poor fit]
39 | COc1ccc(OC)c2nc3c(C(=O)NCCN(C)C)cccc3nc12 | – | inconclusive [inhibitor, full curve]
40 | CCN(CC)C(=O)NCc1c(C)cc(C)cc1C | inactive: -10.5% | –
41 | COc1cccc(NC(=O)Nc2cc(NC(=O)Nc3cccc(OC)c3)c(C)nc2C)c1 | – | inconclusive [inhibitor, single point]
42 | CCOc1ccc(OCc2ccc(C(=O)N3CCCC(C)C3)cc2)cc1 (stereo not given) | – | inconclusive [inhibitor, single point]
43 | Clc1ccc(CSc2nnc(NC3=NCCCCC3)s2)cc1 | – | inconclusive [inhibitor, partial curve]
44 | CC(C)c1ccc(CN2CCN(C(=O)CCl)CC2)cc1 | – | active: 11.2 µM
45 | O=C(NNc1c2ccccc2nc2ccccc12)c1ccccc1Cl | – | active: 4.47 µM
